Test results as given in the RNAGym collection of RNA variant scans (doi:10.7554/elife.90254).
The source gives no read counts; variants with many changes may rest on few reads.

B1: OR4K15 (parent)
chain: GUUAACGGUCAUAGGCCAUGGAAACUAGGAGCACCAUUUCGCUGCCAGUGAAGAAAUGAACAAAGAAAAUCUGGGCCAGGCAGGCAUCAAAAGAAAUAGUCUUGCGCUCAACCAGAAAGUCUGUAAUCAUUUUAAGGGUA

Variants of: B1
Assay: self-cleavage, relative activity (ratio to wild type); higher = more cleavage; in vitro, sequencing; the parent is a self-cleaving ribozyme

Variant	self-cleavage
GUUAACGGUCAUAGGCCAUGGAAACUAGGAGCACCAUUUCGCUGCCAGUGAAGAAAUGAACAUCGGAAAUCUGGGCCAGGCAGGCAUCAAAAGAAAUAGUCCUGCGCUCAACCAGAAAGUCUGUAAUCAUUUUGAGGGUA [A63U A64C A66G U102C A134G]	2.69
GUUAACGGUCAUAGGCCAUGGAAACUAGGAGCACCAUUUCGCUGCCAGUGAAGAAAUGAACAUAGAAAAACUGGGCCUGGCAGGCAUCAAAAGAAAUAGUCUUGCGCUCAACCAGAAAGUCUGUAAUCAUUUUAAGGGUA [A63U U70A A78U]	0.47
GUUAACGGUCAUAGGCCAUGGAAACUAGGAGCACCAUUUCGCUGCCAGUGAAGAAAUGAACAGAGAAAAUCUGGGCCAGGCAGGCAUCAGAAGAAAUAGUCUUGCGCUCAACCAGGAAGUCCGUAAUCAUUUUAAGGGUA [A63G A90G A116G U122C]	0.05
GUUAACGGUCAUAGGCCAUGGAAACUAGGAGCACCAUUUCGCUGCCAGUGAAGAAAUGAACAAGGGAAAUCUGGGCCAGGCAGGCAACAAAAGAAAUAGUCUUGCGCUCAACCAGAAAGGCUGUAAUCAUUUUAAGGGUA [A64G A66G U87A U120G]	1.72
GUUAACGGUCAUAGGCCAUGGAAACUAGGAGCACCAUUUCGCUGCCAGUGAAGAAAUGAACAAGGAGAAUCUGGGCCGGGCAGGCAUCAAAAGAAAUAGUCUUGCGCUCAGCCAGAAAGUCUGUAAUCAUUUUAAGGGUA [A64G A67G A78G A111G]	0.03
GUUAACGGUCAUAGGCCAUGGAAACUAGGAGCACCAUUUCGCUGCCAGUGAAGAAAUGAACAGAGAAAAUCUGGGCCAGGCAGGCAUCAAAAGAAAUAGUCUUGCGCUCAACCAGAAAGUCUGUAAUCAUCUUAGGGGUA [A63G U131C A135G]	1.32
GUUAACGGUCAUAGGCCAUGGAAACUAGGAGCACCAUUUCGCUGCCAGUGAAGAAAUGAACAGAGAAAAUCUGGGCCAGGCAGGCAUCAAAAGAAAUAGUCUCGCGCUCAACCAGAAAGUCUGUAAUCACUUUAAGGGUA [A63G U103C U130C]	1.23
GUUAACGGUCAUAGGCCAUGGAAACUAGGAGCACCAUUUCGCUGCCAGUGAAGAAAUGAACAGAGAAAAUCUGGGCCAGGCAGGCAUCAAAAGAAAUAGUCCUGCGGUCAACCAGAAAGUCUUUAAUCAUUUUAAGGGUA [A63G U102C C107G G123U]	0.03
GUUAACGGUCAUAGGCCAUGGAAACUAGGAGCACCAUUUCGCUGCCAGUGAAGAAAUGAACAUAGAAAAUCUGGGCCAGGCAGGCAUCUAAAGGAAUAGUCUUGCGCUCGACCAGAAAGUCUGUAAUCAUUUUAAGGGUA [A63U A89U A94G A110G]	0.17
GUUAACGGUCAUAGGCCAUGGAAACUAGGAGCACCAUUUCGCUGCCAGUGAAGAAAUGAACAGAGAAAAUCUGGGCCAGGCAGGCAUCAAAAGAAAUAGUCUUGCGCUCAACCUGAAAGUCAGUAAUCAUUUUAAGGGUA [A63G A114U U122A]	0
GUUAACGGUCAUAGGCCAUGGAAACUAGGAGCACCAUUUCGCUGCCAGUGAAGAAAUGAACAUAGAAAAUCUGGGCCAGGCAGGCAUCAAAAGAAUUGGUCUUGCGCUCAACCAGAAAGUCUGUAAUCAUUUUAAGGGUA [A63U A96U A98G]	2.47
GUUAACGGUCAUAGGCCAUGGAAACUAGGAGCACCAUUUCGCUGCCAGUGAAGAAAUGAACAGAGAAAAUCUGGGCCAGGCAGGCAUCAAAAGAAAUAAUCUUGCGCUCAACCAGAAAGUCAGUAAUCAUUUUAAGGGUA [A63G G99A U122A]	0.21
GUUAACGGUCAUAGGCCAUGGAAACUAGGAGCACCAUUUCGCUGCCAGUGAAGAAAUGAACAUAGAAAAUCUGGGCCAGGCAGGCAUCAAAAGAAAUAGUCUAGCGCUCAACCAGACAGUCUGUAAUCAUUUUAAGGGUA [A63U U103A A117C]	0.16
GUUAACGGUCAUAGGCCAUGGAAACUAGGAGCACCAUUUCGCUGCCAGUGAAGAAAUGAACAGAGAAAACCUGGGCCAGGCAGGCAUCAAAAGGAAUAGUCUUGCGCUCAACCAGAAAGUCUGUAAUCAUUUUACGGGUA [A63G U70C A94G A135C]	0.53
GUUAACGGUCAUAGGCCAUGGAAACUAGGAGCACCAUUUCGCUGCCAGUGAAGAAAUGAACAGAGAAAAUCUGGGCCAGGCAGGCAUCAAAAGAAAUAGUCAUGCGCUCAAGCAGAAAGUCUGUAAUCCUUUUAAGGGUA [A63G U102A C112G A129C]	0.01
GUUAACGGUCAUAGGCCAUGGAAACUAGGAGCACCAUUUCGCUGCCAGUGAAGAAAUGAACAGAGAAAAUCUGGGCCAAGCAGGCAUCAAAAGAAAUAGUCUUGCGCUCAACCGGAAAGUCUGUAAUCAUUUUAAGGGUA [A63G G79A A114G]	0.08
GUUAACGGUCAUAGGCCAUGGAAACUAGGAGCACCAUUUCGCUGCCAGUGAAGAAAUGAACAGAGAAAAUCUGGGCCAGGCAGGCAUCAAAAGAAAUAGUCUUGCGCUCGACCAGAAAGUCUGUAACCAUUUUAAGGGUA [A63G A110G U127C]	0.32
GUUAACGGUCAUAGGCCAUGGAAACUAGGAGCACCAUUUCGCUGCCAGUGAAGAAAUGAACAGAGAAAAUCUGGUCCAGGCAGGCAACAAAAGAAAUAGUCUUGCGCUCAACCAGAAAGUCUGUAAUCAUUUUAAGGGUA [A63G G75U U87A]	0.06
GUUAACGGUCAUAGGCCAUGGAAACUAGGAGCACCAUUUCGCUGCCAGUGAAGAAAUGAACAUAGAAAGUCCGGGCCAGGCAGGCAUCAAAAGAAAUAGUCUUGCGCUCAACCAGAAAGUCUGUAAUCAUUUUAAGGGUA [A63U A69G U72C]	0.42
GUUAACGGUCAUAGGCCAUGGAAACUAGGAGCACCAUUUCGCUGCCAGUGAAGAAAUGAACAGAGAAAAUCUGGGCCAGGCAGGCAUCAAAAGAAAUAGUCUUGCACUCAACCAGAGAGUCUGUAAUCAUUUUAAGGGUA [A63G G106A A117G]	0.01
GUUAACGGUCAUAGGCCAUGGAAACUAGGAGCACCAUUUCGCUGCCAGUGAAGAAAUGAACAAGGGAAAUCUGGGCCAGGCAGGCAUCAAAAGAAAUAGUCUUGUGCUCAACCAGAAAGUCUGUAAUCAUUUUAAGGGUA [A64G A66G C105U]	0.05

Variant	self-cleavage
GUUAACGGUCAUAGGCCAUGGAAACUAGGAGCACCAUUUCGCUGCCAGUGAAGAAAUGAACAUAGAAAAUCUGGGCCAGGCAGGCAUCAAAAGAAAUAGUCUUGCGCUCGACCAGAAAGUCUGUAAUCAUUUCAAGGGUA [A63U A110G U133C]	0.16
GUUAACGGUCAUAGGCCAUGGAAACUAGGAGCACCAUUUCGCUGCCAGUGAAGAAAUGAACAAGGAGAAUCUGGGCCCGGCAGGCACCAAAAGAAAUAGGCUUGCGCUCAACCAGAAAGUCUGUAAUCGUUUUAAGGGUA [A64G A67G A78C U87C U100G A129G]	0.09
GUUAACGGUCAUAGGCCAUGGAAACUAGGAGCACCAUUUCGCUGCCAGUGAAGAAAUGAACAGAUAAAAUCUGGGCCAGGCAGGCAUCAAAAGAAAAAGUCUCGCGCUCAACCAGAAAGUCUGUAAUCAUUUUAAGGGUA [A63G G65U U97A U103C]	1.43
GUUAACGGUCAUAGGCCAUGGAAACUAGGAGCACCAUUUCGCUGCCAGUGAAGAAAUGAACAGAGAAAAUCUGGACCAGGCAGGCAUCAGAAGAAAUAGUCUUGCGCUCAACCAGAGAGUCUGUAAUCAUUUUAAGGGUA [A63G G75A A90G A117G]	0.13
GUUAACGGUCAUAGGCCAUGGAAACUAGGAGCACCAUUUCGCUGCCAGUGAAGAAAUGAACAGAGAAAAUCUGGGCCAGGCAGGCAUCAAAAGAAAUAGUCUUGCGCACAACCAGAAAGUCCGUAGUCAUUUUAUGGGUA [A63G U108A U122C A126G A135U]	0.01
GUUAACGGUCAUAGGCCAUGGAAACUAGGAGCACCAUUUCGCUGCCAGUGAAGAAAUGAACAUAGAAAAUCUGGGCCAGGCAGGCAUCAAAAGAAAUAGUCUUGCGCUCGCCCAGAAAGUCUGUAAUCAUUUUAAGGGUA [A63U A110G A111C]	0.04
GUUAACGGUCAUAGGCCAUGGAAACUAGGAGCACCAUUUCGCUGCCAGUGAAGAAAUGAACAGAGAAAAUCCGGGCCAGGCAGGCAUCAAAAGAAAUAGUCUUGCGCUCAACCAGUAAGUCUGUAAUCAUUUUAAGGGCA [A63G U72C A116U U139C]	0.02
GUUAACGGUCAUAGGCCAUGGAAACUAGGAGCACCAUUUCGCUGCCAGUGAAGAAAUGAACAUAGAAAAUCUGGGCCAGGCAGGCAUCAAAAGAAAUAGUCUCGCGCUCAACCAGAGAGUCUGUAAUCAUUUUAAGGGUA [A63U U103C A117G]	1.82
GUUAACGGUCAUAGGCCAUGGAAACUAGGAGCACCAUUUCGCUGCCAGUGAAGAAAUGAACAAGGAGAAUCUGGGCCAGGCAGGCAUCAAAAGAAAUAGUCUUGCGCUCAACCAGAGAGUCUGUAGUCAUUUUAAGGGUA [A64G A67G A117G A126G]	1.4
GUUAACGGUCAUAGGCCAUGGAAACUAGGAGCACCAUUUCGCUGCCAGUGAAGAAAUGAACAGAGAAAAUCCGGGCCAGGCAGGCACCAAAAGAAAUAGUCUUGCGCUCAACCAGAAAGUCUGUAAUCAUUUUAAGGGUA [A63G U72C U87C]	0.2
GUUAACGGUCAUAGGCCAUGGAAACUAGGAGCACCAUUUCGCUGCCAGUGAAGAAAUGAACAAGGGAAAUCUGGGCCAGGCAGGCAUCAAAAGAAAUAGUCUUGCGCUCAACCAGAAAGCCUGUAAUCAUUUUAAGGGUA [A64G A66G U120C]	1.56
GUUAACGGUCAUAGGCCAUGGAAACUAGGAGCACCAUUUCGCUGCCAGUGAAGAAAUGAACAUAGAAAAUCCGGGCCAGGCAGGCAUCAAAAGAAAUAGUCUUGCGCUCAACCAGAAAGUCUGCAAUCAUUUUAAGGGUA [A63U U72C U124C]	0.05
GUUAACGGUCAUAGGCCAUGGAAACUAGGAGCACCAUUUCGCUGCCAGUGAAGAAAUGAACAGAGAAAAUCUGGGCCAGGCAGGCAUCAAAAGAAAUAGUCUUGCGCUCAACCAGGAAGUCUGUAAUCAAUUUAAGGGUA [A63G A116G U130A]	0.21
GUUAACGGUCAUAGGCCAUGGAAACUAGGAGCACCAUUUCGCUGCCAGUGAAGAAAUGAACAGAGAAAAUCUGGGCCAGGCAGGCAUCAAAGGAAAUAGUCUUGCGCCCAACCAGAAAGUCUGUAAUCAUUUUAAGGGUA [A63G A92G U108C]	0
GUUAACGGUCAUAGGCCAUGGAAACUAGGAGCACCAUUUCGCUGCCAGUGAAGAAAUGAACAGAGAAAAUCUGGGCCAGGCAGGCAUCAAAAGAAGUAGUCUUGCGCUCAACCAGAAAGUUUGUAAUCAUUUUAAGGGUA [A63G A96G C121U]	1.58
GUUAACGGUCAUAGGCCAUGGAAACUAGGAGCACCAUUUCGCUGCCAGUGAAGAAAUGAACAUAGAAAAUCUGGGCCAGGCAGGCAUCAAAAGAAAUAGUCUUGCGCCCAACCAGAAAGUCUGUAAUCAUUUUAAGGGUG [A63U U108C A140G]	0
GUUAACGGUCAUAGGCCAUGGAAACUAGGAGCACCAUUUCGCUGCCAGUGAAGAAAUGAACAGAGAAAAUCUGGGCCAGGCAGGCAUCAUAAGAAAUAGUCUUGCGCUCAACCAGAGAGUCUGUAAUCAUUUUAAGGGUA [A63G A90U A117G]	1.85
GUUAACGGUCAUAGGCCAUGGAAACUAGGAGCACCAUUUCGCUGCCAGUGAAGAAAUGAACAGAGAAAAACUGGGCCAGGCAGGCAUCAAAAGAAAUAGUCUUGCGCUCAACCAGAAAGUCAGUAAUCAUUUUAAGGGUA [A63G U70A U122A]	1.15
GUUAACGGUCAUAGGCCAUGGAAACUAGGAGCACCAUUUCGCUGCCAGUGAAGAAAUGAACAAGGAGAGUCUGGGCCAGGCAGGCGUCAAAAGAAAUAGUCUUGCGCUCAACCAGAAAGUCUGUAAUCAUUUUAAGGGUA [A64G A67G A69G A86G]	0.37
GUUAACGGUCAUAGGCCAUGGAAACUAGGAGCACCAUUUCGCUGCCAGUGAAGAAAUGAACAGAGAAAAUCUGGGCCAGGCAGGCAUCAUAAGAAAUAGUCUUGCGCUCAACCAGAAAGUCUGUAAUCAUCUUAAGGGUA [A63G A90U U131C]	1.89
